Assay results published in PubChem BioAssay AID360 (National Center for Advancing Translational Sciences (NCATS), 2006).
In all, about 48,000 compounds went through this assay and about 550 (1.1%) were called active. Another 4% or so got no clear call; they are omitted. No stated cut-off is given here; in the data, active means potency below about 15 µM; inconclusive means mostly about 16 µM to 33 µM; inactive means weaker than that. The list shows a part of the results.

Target: Lysosomal acid glucosylceramidase (Homo sapiens) (UniProt P04062)
Sequence of UniProt P04062 (P04062 whole entry, looked up): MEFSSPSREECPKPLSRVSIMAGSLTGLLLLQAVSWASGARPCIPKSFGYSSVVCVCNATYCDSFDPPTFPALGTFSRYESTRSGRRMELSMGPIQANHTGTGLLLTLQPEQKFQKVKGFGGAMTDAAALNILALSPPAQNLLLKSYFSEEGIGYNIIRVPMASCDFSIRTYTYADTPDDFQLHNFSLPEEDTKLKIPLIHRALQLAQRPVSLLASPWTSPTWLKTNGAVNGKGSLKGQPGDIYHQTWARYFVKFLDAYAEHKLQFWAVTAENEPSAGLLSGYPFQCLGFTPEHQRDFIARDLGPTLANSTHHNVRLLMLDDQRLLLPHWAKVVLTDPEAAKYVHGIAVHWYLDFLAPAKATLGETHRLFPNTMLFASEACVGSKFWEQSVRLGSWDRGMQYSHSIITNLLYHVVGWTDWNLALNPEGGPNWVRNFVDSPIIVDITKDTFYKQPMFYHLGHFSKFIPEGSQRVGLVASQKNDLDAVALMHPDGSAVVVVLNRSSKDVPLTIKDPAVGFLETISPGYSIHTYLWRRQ
Assay: Glucocerebrosidase;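 further: the screen sought inhibitors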
Settings: purified enzyme, resorufin glucoside fluorescence (screen aimed at inhibitors), 20 min
Summary of the method: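 Wild-type enzyme at 0.2 nM final in 50mM citric acid/KH2PO4, 10mM sodium taurocholate, 0.01% tween-20, pH 5.9, with resorufin beta-D-glucopyranoside at 30 uM final. Compounds titrated, 20 min at RT, red fluorescence read; AC50 from titration.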
Potency means the concentration at half of the fitted maximal effect.

Potency, inactive:
CCCCS(=O)(=O)Nc1ccc(C(=O)NCC2CCCO2)cc1 (stereo not given) > 76.9 µM
O=C(Cn1nnc(-c2ccccc2F)n1)Nc1ccc2c(c1)OCO2 > 76.9 µM
CCn1c(SCC(=O)c2c(N)n(C)c(=O)n(C)c2=O)nc2sc(C)c(C)c2c1=O > 76.9 µM
O=c1c2c3c(sc2nc2sc(CN4CCOCC4)cn12)CCCC3 > 76.9 µM
CCCN1Cc2cccc(C(=O)NC3CCCC3)c2C1=O > 76.9 µM
O=C(c1ccco1)N1CCN(C(=O)c2ccc(Cn3cc(Br)cn3)o2)CC1 > 76.9 µM
Cc1cc(Cl)c(S(=O)(=O)NCCC(=O)O)cc1OCC(N)=O > 76.9 µM
Cc1ccnc(NC(=O)COc2ccc3oc4c(c3c2)CCCC4)c1 > 76.9 µM
COc1ccc(C2C3=C(Nc4ncnn42)c2ccccc2CCC3)cc1 (stereo not given) > 76.9 µM
CC1=C(C(=O)Nc2ccccn2)C(c2ccc(N(C)C)cc2)n2ncnc2N1 (stereo not given) > 76.9 µM
O=C(Nc1ccccc1)Nc1ccccn1 > 76.9 µM
Cc1occc1C(=O)n1cnc2ccccc21 > 76.9 µM
CCOC(=O)C1CCCN(C(=O)c2ccc3c(=O)n(CCOC)c(=S)[nH]c3c2)C1 (stereo not given) > 76.9 µM
Cc1ccc(N(CC(N)=O)C2SC(=O)N(C)C2=O)cc1 (stereo not given) > 76.9 µM
O=C(CN(c1ccc2c(c1)OCCO2)S(=O)(=O)c1ccccc1)Nc1ccc2c(c1)OCO2 > 76.9 µM
O=C(CNS(=O)(=O)c1cccs1)Nc1ccc2c(c1)OCCO2 > 76.9 µM
CN(CCc1ccccn1)C(=O)CCNC(=O)Cn1cnc2ccccc2c1=O > 76.9 µM
Cc1ccc(C(=O)N2CCC(C(N)=O)CC2)cc1C > 76.9 µM
CCCCCOC(=O)Cc1c(O)c2ccccc2n(C)c1=O > 76.9 µM
COC(=O)c1cccc(NC(=O)Cn2nnc3ccccc32)c1 > 76.9 µM
Cc1ccc2nc(NC3=NCN(CCc4ccccc4)CN3)nc(C)c2c1 > 76.9 µM
CC(=O)Nc1ccccc1OCC(=O)c1ccc2c(c1)OCO2 > 76.9 µM
CN1CCN(c2nc(N3CCN(CCO)CC3)nc3ccccc23)CC1 > 76.9 µM
COC(=O)C(C(=O)Nc1cc(C)on1)C1CCCCCC1 (stereo not given) > 76.9 µM
Cc1ccccc1N1CC(c2nc3ccccc3[nH]2)CC1=O (stereo not given) > 76.9 µM
